According to the RNAGym collection of RNA variant scans (doi:10.7554/elife.90254):
The source gives no read counts; variants with many changes may rest on few reads.

B1: LINE1-mini (parent)
chain: GGCAGAGCUCAACACAGCGUGGCAAAGUGGCUGUGGCUAGACUGCC

Variants of: B1
Assay: self-cleavage, relative activity (ratio to wild type); higher = more cleavage; in vitro, sequencing; the parent is a self-cleaving ribozyme

Variant	self-cleavage
CGCAGAGCUCAACACAGCGUUGCAAAGUGUCUGUGGCUAGACUGCC [G1C G21U G30U]	0.5
GGCAGGUCUCAACUCAGCGUGGCAAAGUGGCUGUGGCUAGACUGCC [A6G G7U A14U]	0.09
GGCAGAGCACAACACAGGGUGACAAAGUGGCUUUGGCUCGACUACC [U9A C18G G22A G33U A39C G44A]	0.02
GGCAGUGCUCAAAACAGUGUGGCAAAGUGGCUGUGGCGAGACUGCC [A6U C13A C18U U38G]	0.03
GGCAGAGCUCAACACACCGUGGCAAGAUGACUGUGGCUAGACUACC [G17C A26G G27A G30A G44A]	0.32
GGAAGAGUUCAACACAGCGUGGCAAAGUGGCUGUGCCUAGACUGCC [C3A C8U G36C]	0.54
GGCAGAGCUCAACACAGCGUGGCAUAGUGGCCGGGGCUAGCCUGCC [A25U U32C U34G A41C]	0.02
CGGAGAGCUCAACACAGCCUGGCAAAGUGGCUGUGGCUGGACUGCC [G1C C3G G19C A39G]	0.02
AGCACAGCUCAACACAGCGUCGCAAAGUGGAUGUUGCUAGACUGCC [G1A G5C G21C C31A G35U]	0.02
GGCAGAGCUCAAAACAGCGUGGCAAAGUGGCUGUGGUUAGACCGCC [C13A C37U U43C]	0.38
GGCAGAGCUCGACACAGCGUGGCAAAGUGGCUCUGGCUAGACCGCC [A11G G33C U43C]	0.01
GGCAGAGCUCAUCACAGCGAGGCAAAGUGGCUGUAGCUAGACUGCC [A12U U20A G35A]	0.12
GGCAGCGCUCAACAAAGCGGGGCAAAGUGGCUUUGGCUGGACUGCC [A6C C15A U20G G33U A39G]	0.04
CGCAGAGCUCAACACUGCGUGGCAAAGUGGCAGUGGCUAGACUGCC [G1C A16U U32A]	0.01
GGCAGAGCUUAACACAGCGUGGCAAAAUGGCUGUGGCUAUACUGCC [C10U G27A G40U]	0.01
GGCAGGGCUCAACACAGCUUGGCAAAGAGGCUCUGGCUAGACUGCC [A6G G19U U28A G33C]	0.03
GGCAAAGAUCAACACAUCGUGGCAAAGUUGGUGUGGCUAGAUUGCC [G5A C8A G17U G29U C31G C42U]	0.27
GGCAAAGCUCAACCCAGCGUGGCAAAGUGCCUGUGGCUAGACUGCC [G5A A14C G30C]	0.07
GGCAGAGCUCAACACAGCGUGGCAAAGUUGCUGUGGCUAGGCUUGC [G29U A41G G44U C45G]	0

Variant	self-cleavage
GGCAGAGCUCGACACAGCGGGGCAAAGUGGCUGUGGCUGGACUGCC [A11G U20G A39G]	0.06
GGCAGGGCUCAACACAGCGUGGCCAAGUGCCUGUGGCUAGUCUGCC [A6G A24C G30C A41U]	0.06
GGCCUAGCUCAACACGGCGUGGCAAAGUGGCUGUGGCUAGACCUCC [A4C G5U A16G U43C G44U]	0.02
GGCUGAGCUCAACACAGCGUGGCAAAGUGGCUGUGGCUAGACUUAC [A4U G44U C45A]	0.04
UGCAGACCUCAACCCCGCUUGACAAAGUGGCUGUGGCUAGACUGGC [G1U G7C A14C A16C G19U G22A C45G]	0.05
GGCAGCACUCAACACAGCGUGGCUAAGGGGCUGAGGGUAGCCUGGC [A6C G7A A24U U28G U34A C37G A41C C45G]	0.02
GGCAGAGCUUAACACAGCGUGGCAAAGUGGCUGUGACCAGACUGCC [C10U G36A U38C]	0.03
GGCAGAGCGCAAAAUAGCGUGGCAAAAUGGGUGUGGCCAGACUGCA [U9G C13A C15U G27A C31G U38C C46A]	0.02
GGAAGAGCUCUACACAGCGUGGCAAAGUGGCUGUGGCUAGACUGAC [C3A A11U C45A]	0.03
GGAAAAGCUCAACAGCGCGUGGCAAAGUGGCUGUGGCUAGACUGCC [C3A G5A C15G A16C]	0.41
GGCAGAGCUCAACACAGCGUGGCAUAUUGGCUGAGCCUUGACUGCC [A25U G27U U34A G36C A39U]	0.09
GGCAGAGCUCAACACAGCGUAGCAAAGUGGCUCUGGUUAGACUGCC [G21A G33C C37U]	0.04
GGGAGAGCUCAACACAGCGUGGCAAAGUGGCAGAGGCUAGACUGCC [C3G U32A U34A]	0.04
GGCAGAGCUCAACACAGCGUAGCAAAGUGGCUGUGACUAAACUGCC [G21A G36A G40A]	1.08
GGCAGAUCACAACACAGCGAGGCAAAGUGGCUGUGGCUAGACUGCC [G7U U9A U20A]	0.07
GGCAGAGCUCAACACAGCGUGGCAAAGUUGCUGUGGCUACACUGUC [G29U G40C C45U]	0.01
GACAGAGCACAACACAGCGUGGCACACUGGCUGUGGCUCGACUGCC [G2A U9A A25C G27C A39C]	0.28
GGCAGAGCUAAACACAGCAUUGCUAGGUGGCUGUGGCUAGACUGCC [C10A G19A G21U A24U A26G]	0.04
GGCAGAGCUCAACACAGUGUGGCAAGGUAGCAGUGGCUAGACUGCC [C18U A26G G29A U32A]	0.09

Variant	self-cleavage
GGCAGAGCUCAACACAGCGUGGCAAAGUGGUUGGGGCUAGAUUGCC [C31U U34G C42U]	0.03
AGCAGAGCUCAACCCAGCGUGGCAAAGUCGCUGUGAUUAGACUGCC [G1A A14C G29C G36A C37U]	0.06
GGCAGAGCGCAACCCAGCGUUGCAAAGUGGCUGUGGCUAGACUGCC [U9G A14C G21U]	0.03
GGCAGAGCUCAACACGGCCUGGCAAAGUGGCUGUUGCUAGACUGCC [A16G G19C G35U]	0.01
AGCAGAGCUAAACACAGCCUGGCAAAGUAGCAGUGGCUAGUCUGAC [G1A C10A G19C G29A U32A A41U C45A]	0.01
GACAGAGCUCACCACAGCGUGGCAAAGUGGCUGUGGCUUGACUGCC [G2A A12C A39U]	0.03
GGCAGAGCUCAACACAGCGUAGCAAAGUGACUGUGGCUAGACUGAC [G21A G30A C45A]	0.51
GGCAGAGCUCAAAACAGCGUGGCUCAGUGGCUGUGGCUAGACUGCC [C13A A24U A25C]	0.01
GCCAGAGCUUAACACAGCGAGGUAAAUUGGCUGUCGCUAGACUGCC [G2C C10U U20A C23U G27U G35C]	0.01
GGCAGAGAACAACACAGCAUGGCAAAGUGGCUGUGGCUGGACUGCC [C8A U9A G19A A39G]	0.41
GUCAGAGCUCAACACAGCGUGGCAAAGUGACUGUGGCUAAACUGCC [G2U G30A G40A]	0.05
GGCAGAGCUGUACGCAGCGUGGCAAAGUGGCUGGGGCUAGACUGCC [C10G A11U A14G U34G]	0
GGUAGAGCUCAACACAGCGUGGCAAAGUGGCAGUGGCUAGACUGGC [C3U U32A C45G]	0.07
GGCAGAACUCAACACAGCAUAGCAAAGUGGCUGUGGCUAGACUGCC [G7A G19A G21A]	1.01
GGCCGAGCUCCACACAGCGUGACAAAGUGGCCGUGGCUAGACUGCC [A4C A11C G22A U32C]	0.04
GGCAGAGCUCAACAUAGCGUGGCAAAGUGGCUGUGGCUUGAGUGCC [C15U A39U C42G]	0.05
GGCAGAGCUCAACACAUCGUGGCAAAGUUACUGUGGCUAGACUGCC [G17U G29U G30A]	0.41
GACAGAGCACAACACAGCGCGGCAAAGUGGCUGUGGCUAGACUGCC [G2A U9A U20C]	0.13
